From the antibiotic and cytotoxicity screens of Wong et al. (2023)
The list shows a part of the results.

These compounds were tested on HepG2 (assay: cytotoxicity call (relative viability < 0.9)). Settings: 10 µM.
`C[C@H]1CCCCO[C@H](CN(C)Cc2ccc3c(c2)OCO3)[C@@H](C)CN([C@@H](C)CO)C(=O)c2cc(NC(=O)Nc3ccc(F)cc3)ccc2O1` was tested, and the cytotoxicity call was “active”. In the case of `O=C(C[C@@H]1C[C@@H]2c3cc(NS(=O)(=O)c4ccc(F)cc4)ccc3O[C@@H]2[C@H](CO)O1)NCc1cccc(F)c1`, the cytotoxicity call is reported as “inactive”. With `C[C@H](CO)N1C[C@H](C)[C@H](CN(C)Cc2ccc(C(=O)Nc3ccccc3N)cc2)Oc2ccc(NC(=O)NC3CCCCC3)cc2C1=O` the cytotoxicity call was “inactive”. `O=C(CCCCCNC(=O)OCc1ccc([C@H]2[C@H](C(=O)NCc3ccccc3)c3ccccc3C(=O)N2Cc2ccccc2)cc1)NO` was tested, and the cytotoxicity call was “inactive”. For `C[C@@H]1CN([C@H](C)CO)C(=O)c2cccc(NC(=O)NC3CCCCC3)c2O[C@H]1CN(C)C(=O)Nc1cccc2ccccc12`, the cytotoxicity call was “inactive”. `CCC1(O)CC2CN(CCc3c([nH]c4ccccc34)C(C(=O)OC)(c3cc4c(cc3OC)N(C=O)C3C(O)(C(=O)OC)C(OC(C)=O)C5(CC)C=CCN6CCC43C65)C2)C1.O=S(=O)(O)O` (centres undefined) was tested, and the cytotoxicity call was “active”. With `C[C@H]1CCCCO[C@@H](CN(C)Cc2ccncc2)[C@@H](C)CN([C@@H](C)CO)C(=O)c2cc(NC(=O)NC3CCCCC3)ccc2O1` the cytotoxicity call was “inactive”. In the case of `COc1ccc(NC(=O)Nc2ccc3c(c2)[C@@H]2C[C@@H](CC(=O)NCc4ccccn4)O[C@@H](CO)[C@@H]2O3)cc1`, the cytotoxicity call is reported as “inactive”. For `C[C@@H]1CN([C@@H](C)CO)C(=O)c2cccc(NC(=O)C3CCCCC3)c2O[C@H]1CN(C)C(=O)Nc1cccc2ccccc12`, the cytotoxicity call was “inactive”. `CSC1=N[C@@]2(C)CCCC[C@@H]2c2c1ccc1ccccc21` was tested, and the cytotoxicity call was “inactive”. `Cc1noc(C)c1NC(=O)Nc1ccc2c(c1)CC(=O)N([C@H](C)CO)C[C@@H](C)[C@@H](CN(C)S(=O)(=O)c1cn(C)cn1)O2` was tested, and the cytotoxicity call was “inactive”. For `CCS(=O)(=O)N1CC[C@]2(CC1)CN(Cc1ccc3c(c1)OCO3)[C@H](CO)c1[nH]c3cc(ccc3c12)OC`, the cytotoxicity call was “inactive”. For `CCS(=O)(=O)Nc1ccc2c(c1)C(=O)N(C)[C@@H]1CC[C@@H](CC(=O)NCc3ccccc3F)O[C@@H]1CO2`, the cytotoxicity call was “inactive”. In the case of `CNC[C@H]1Oc2ccc(NC(=O)CCN3CCOCC3)cc2CC(=O)N([C@H](C)CO)C[C@@H]1C`, the cytotoxicity call is reported as “inactive”. In the case of `C[C@@H]1CCCCO[C@H](CN(C)Cc2ccncc2)[C@@H](C)CN([C@H](C)CO)C(=O)c2cc(NC(=O)Cc3ccccc3)ccc2O1`, the cytotoxicity call is reported as “inactive”. `CO[C@H]1CN(C)C(=O)c2cc(NC(C)=O)ccc2OC[C@H](C)N(S(=O)(=O)c2cn(C)cn2)C[C@H]1C` was tested, and the cytotoxicity call was “inactive”. In the case of `COc1ccc(S(=O)(=O)N(C)C[C@@H]2OCCCC[C@@H](C)Oc3ccc(NC(=O)Nc4c(C)noc4C)cc3C(=O)N([C@@H](C)CO)C[C@H]2C)cc1`, the cytotoxicity call is reported as “inactive”. With `CC(C)NC(=O)N(C)C[C@@H]1Oc2c(NS(=O)(=O)c3cn(C)cn3)cccc2C(=O)N([C@@H](C)CO)C[C@H]1C` the cytotoxicity call was “inactive”. For `CC(=O)OC(CC(=O)O)[N+](C)(C)C.[Cl-]` (centres undefined), the cytotoxicity call was “inactive”. For `C[C@@H]1CN([C@@H](C)CO)C(=O)c2cc(NC(=O)Nc3ccc(C(F)(F)F)cc3)ccc2O[C@@H](C)CCCCO[C@@H]1CN(C)Cc1ccc(C(=O)O)cc1`, the cytotoxicity call was “inactive”. With `CC(C)(C[C@H]1CN(S(=O)(=O)c2cccc(C(F)(F)F)c2)c2cc(-c3cc(F)cc(OC(F)F)c3)ccc2O1)C(=O)O` the cytotoxicity call was “inactive”. In the case of `CCS(=O)(=O)N1CC[C@@H]2CO[C@H](CN3CCN(C)CC3)[C@@H]2C1`, the cytotoxicity call is reported as “inactive”. With `CN1CCN(C(=O)C[C@H]2C=C[C@H](NS(=O)(=O)c3cccc(F)c3)[C@H](CO)O2)CC1` the cytotoxicity call was “inactive”. With `C[C@@H]1CN([C@H](C)CO)C(=O)c2cc(N(C)C)ccc2O[C@@H](C)CCCCO[C@@H]1CN(C)S(=O)(=O)c1cn(C)cn1` the cytotoxicity call was “inactive”. `C[C@@H]1CCCn2cc(nn2)COCCNC1=O` was tested, and the cytotoxicity call was “inactive”. In the case of `C[C@H](CO)N1C[C@H](C)[C@H](CN(C)S(C)(=O)=O)Oc2c(NS(=O)(=O)c3cccs3)cccc2C1=O`, the cytotoxicity call is reported as “inactive”. For `C[C@@H]1CN([C@H](C)CO)C(=O)c2cccc(NC(=O)c3cnccn3)c2O[C@H]1CN(C)Cc1ccccc1`, the cytotoxicity call was “active”. With `C[C@@H]1CCCCO[C@H](CN(C)Cc2ccc(C(=O)O)cc2)[C@H](C)CN([C@@H](C)CO)C(=O)c2cc(NC(=O)Nc3ccc(C(F)(F)F)cc3)ccc2O1` the cytotoxicity call was “inactive”. With `Cc1noc(C)c1NC(=O)N(C)C[C@H]1Oc2ccc(NS(=O)(=O)c3cccs3)cc2CC(=O)N([C@@H](C)CO)C[C@@H]1C` the cytotoxicity call was “inactive”.
